Molecules are shown by their SMILES. Structures can show the parent of a compound that is named as a salt. This is one part of the list. Repeats are few or missing, and single values can be far off.
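Also: monoclonal Beas-2B line stably carrying CMV promoter-driven AQP5-HiBiT, 5,000 cells per well in 384-well plates, lytic HiBiT plus LgBiT NanoLuc luminescence, FDA-approved drug library screen.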

The subject of this assay is Beas-2B AQP5-HiBiT reporter cells. Put plainly: AQP5-HiBiT luminescence relative to vehicle (ratio to vehicle); higher = higher AQP5-HiBiT protein abundance. To be noted: 10 µM; 18 h.
For `COc1c(C)c2c(c(O)c1C/C=C(\C)CCC(=O)O)C(=O)OC2` [Mycophenolic acid], the AQP5-HiBiT luminescence was determined as 0.574.
Turning to `CN1CCC[C@@H]1Cc1c[nH]c2ccc(CCS(=O)(=O)c3ccccc3)cc12` [Eletriptan HBr], the AQP5-HiBiT luminescence turned out to be 1.07.
Under `CN(C)CC/C=C1/c2ccccc2Sc2ccc(Cl)cc21` [Chlorprothixene] stands 1.19.
Consider `CN1CCC(=C2c3ccccc3C=Cc3ccccc32)CC1` [Cyproheptadine hydrochloride], for which the AQP5-HiBiT luminescence turned out to be 1.09.
`CCOC(=O)[C@H](CCc1ccccc1)N[C@@H](C)C(=O)N1[C@H](C(=O)O)C[C@@H]2CCC[C@@H]21` [Ramipril]: the AQP5-HiBiT luminescence stood at 0.898.
To `O=c1[nH]c(=O)n([C@H]2C[C@H](O)[C@@H](CO)O2)cc1I` [Dendrid] belongs 3.38.
To `O=C(O)c1cc(=O)c2c(OCC(O)COc3cccc4oc(C(=O)O)cc(=O)c34)cccc2o1` [Sodium cromoglycate] belongs 0.802; to `CCCCNC(=O)NS(=O)(=O)c1ccc(C)cc1` [Tolbutamide], 1.24.
To `CNS(=O)(=O)Cc1ccc2[nH]cc(CCN(C)C)c2c1` [Sumatriptan succinate] belongs 0.547; to `CC(C)(C(=O)O)c1ccc(C(O)CCCN2CCC(C(O)(c3ccccc3)c3ccccc3)CC2)cc1` (configuration not stated) [Fexofenadine hydrochloride], 1.34.
`CC(=O)O[C@]1(C(C)=O)CC[C@H]2[C@@H]3C=C(C)C4=CC(=O)CC[C@]4(C)[C@H]3CC[C@@]21C` [Megestrol acetate]: the AQP5-HiBiT luminescence was 0.719.
Under `NS(=O)(=O)Cc1noc2ccccc12` [Zonisamide] stands 0.986.

For the origin of these results see the supplement of paper PMC8821664.
